From PubChem BioAssay
The shares of active, inactive and inconclusive entries below differ from those in the screen. The source made the active and inactive calls.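 The calls were made as follows, unless noted: active = thallium flux slope beyond 3 SD from same-plate DMSO control mean in most replicates, usually higher, sometimes lower; inconclusive = repeat tests gave conflicting results; inactive = no significant difference from controls in most replicates.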

Legend:
[1] = biological target: Solute carrier family 12 member 5 (Homo sapiens) (UniProt Q9H2X9); test: modulation of KCC2 thallium flux in HEK cells – cell-based, ouabain, retest, confirmation (AID 1717); details: HEK293-KCC2, thallium flux FluoZin2 fluorescence, at 10 µM, bidirectional: low = inhibitor, high = activator;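 also: slope of initial-normalized fluorescence between seconds 10 and 20 after thallium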
Chain of UniProt Q9H2X9 (Q9H2X9 whole entry, looked up): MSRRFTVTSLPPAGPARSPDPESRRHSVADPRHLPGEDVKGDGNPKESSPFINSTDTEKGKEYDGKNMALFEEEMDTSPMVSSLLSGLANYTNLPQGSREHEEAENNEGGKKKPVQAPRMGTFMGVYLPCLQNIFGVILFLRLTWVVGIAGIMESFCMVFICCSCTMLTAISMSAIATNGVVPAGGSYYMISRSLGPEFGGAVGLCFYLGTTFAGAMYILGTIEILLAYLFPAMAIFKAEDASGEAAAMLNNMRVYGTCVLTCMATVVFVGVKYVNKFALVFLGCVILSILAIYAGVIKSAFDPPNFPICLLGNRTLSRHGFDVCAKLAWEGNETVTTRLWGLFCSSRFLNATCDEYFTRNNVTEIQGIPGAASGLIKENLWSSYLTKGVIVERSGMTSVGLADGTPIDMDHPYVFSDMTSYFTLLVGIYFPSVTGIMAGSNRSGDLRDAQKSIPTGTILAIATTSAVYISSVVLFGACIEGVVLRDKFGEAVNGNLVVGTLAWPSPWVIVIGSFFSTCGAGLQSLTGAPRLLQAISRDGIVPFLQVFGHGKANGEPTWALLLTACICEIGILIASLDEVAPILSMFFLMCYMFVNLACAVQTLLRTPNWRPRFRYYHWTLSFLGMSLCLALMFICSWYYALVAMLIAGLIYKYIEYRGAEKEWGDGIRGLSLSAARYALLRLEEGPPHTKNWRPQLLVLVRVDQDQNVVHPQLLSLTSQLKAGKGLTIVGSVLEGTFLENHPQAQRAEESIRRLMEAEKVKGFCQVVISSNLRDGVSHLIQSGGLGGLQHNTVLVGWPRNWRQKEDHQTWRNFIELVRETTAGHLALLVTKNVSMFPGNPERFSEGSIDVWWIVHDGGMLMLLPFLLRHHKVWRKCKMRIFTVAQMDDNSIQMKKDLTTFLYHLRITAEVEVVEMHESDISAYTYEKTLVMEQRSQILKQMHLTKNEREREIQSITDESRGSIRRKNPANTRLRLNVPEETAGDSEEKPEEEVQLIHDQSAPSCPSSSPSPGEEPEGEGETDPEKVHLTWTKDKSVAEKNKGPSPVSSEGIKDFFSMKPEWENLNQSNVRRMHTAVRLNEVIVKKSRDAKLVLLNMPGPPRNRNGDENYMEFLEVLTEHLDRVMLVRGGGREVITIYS

[2] = native HEK Tl+ uptake effects, second counter-screen – HEK cells, counterscreen 2, counter-screen for KCC2 modulator project, confirmation (AID 1718;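 active = thallium flux slope above the same plate's solvent-control mean plus 3 SD in both duplicate wells; inconclusive = duplicate wells that disagreed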;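 also: run without ouabain in cells lacking the KCC2 cotransporter; slope of fluorescence scaled to its starting value between 10 and 20 s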); details: HEK293 parental, thallium flux FluoZin-2 fluorescence slope; at 10 µM
Procedure, shortened: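 Test system: parental HEK cells / Reagent: thallium sulfate stimulus, 12 mM in buffer, pH 7.3 / Compound: single 10 µM final compound dose, 0.1% DMSO / Timing: overnight cell culture at 37 °C, 48 min dye loading, compound before thallium / Detection: FluoZin-2 fluorescence kinetics / Read-out: rate of F/F0 rise, 10–20 s after thallium addition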

Compound	raw Tl+ flux slope (below DMSO = inhibition, above = activation) [1]	thallium flux slope [2]
CCOC(=O)c1c(N2C(=O)Nc3cc(Cl)c(Cl)cc3N2O)sc2c1CCCCC2	inconclusive: 0.0178	inactive: 0.00992
CCOc1cccc(-c2cc(-c3n[nH]c(=S)n3CC)c3ccccc3n2)c1	inconclusive: 0.0381	inconclusive: 0.0106
Cc1ccc(C)c(C(=O)NC(C)CCc2ccccc2)c1 (centres undefined)	inconclusive: 0.0189	inactive: 0.01
COc1cccc(C2=NN(C(=O)c3ccccc3)C(O)(C(F)(F)F)C2)c1 (centres undefined)	inconclusive: 0.0279	inconclusive: 0.0109
COc1ccc2nc(NC(=O)CNS(=O)(=O)c3cccs3)sc2c1	inconclusive: 0.0164	inconclusive: 0.0123
C/C(=N\NC(=S)NCCc1ccccc1)c1ccc(Cl)cc1	inactive: 0.0231	inconclusive: 0.0115
CCC(=O)Nc1ccc(NC(=O)c2ccco2)cc1	inactive: 0.0227	inconclusive: 0.0111
C/C(=N/NC(=O)c1cc(-c2ccc(Cl)s2)[nH]n1)c1ccco1	inactive: 0.0206	inconclusive: 0.0116
O=C(Cc1ccccc1)NNC(=S)NC(=O)c1cccs1	inconclusive: 0.0243	active: 0.0181
N#Cc1cc2c([nH]c1=S)CCCCCC2	inconclusive: 0.027	inconclusive: 0.0111
CCc1ccc(Nc2nnc(SCC(=O)Nc3cccc(S(=O)(=O)NC4=NCCCCC4)c3)s2)cc1	active: 0.0113	inactive: 0.0106
CCOC(=O)c1c(-c2ccccc2)csc1NC(=O)CSc1nnnn1C	inconclusive: 0.017	inconclusive: 0.00978
CC1=CN2C(=N)/C(=C/c3ccc(C)o3)C(=O)N=C2S1	inactive: 0.0228	inconclusive: 0.0115
COC(=O)Cc1[nH]n(-c2nc3ccccc3s2)c(=O)c1C(C)=Nc1ccc(Cl)cc1	inconclusive: 0.0238	inconclusive: 0.0101
Cc1nc(C(=O)NNC(=O)c2ccccc2Cl)c(C(F)(F)F)o1	inconclusive: 0.0202	inconclusive: 0.0108
Cc1ccccc1NC(=S)N=Nc1c(O)n(C)c2ccc(S(=O)(=O)N3CCOCC3)cc12	inconclusive: 0.0314	inconclusive: 0.0118

Compound	raw Tl+ flux slope (below DMSO = inhibition, above = activation) [1]	thallium flux slope [2]
Cc1nn(-c2ccccc2)c(C)c1/C=N/n1c(-c2ccccc2Br)n[nH]c1=S	inconclusive: 0.0278	inconclusive: 0.0135
COC(=O)CNC(=S)NC(=O)c1ccc(C(C)(C)C)cc1	inconclusive: 0.0222	inconclusive: 0.0135
Cc1ccsc1/C=N\NC(=O)c1ccc2c(c1)OCO2	inactive: 0.0196	inconclusive: 0.0115
CCOC(=O)N1CCN(C(=O)c2ccc3c(=O)n(Cc4ccc(Cl)cc4)c(=S)[nH]c3c2)CC1	inconclusive: 0.0223	active: 0.0156
CC1Cc2ccccc2N1CC(=O)Nc1ccc(S(=O)(=O)N(C)C)cc1 (centres undefined)	inactive: 0.0222	inconclusive: 0.0104
CC(=O)c1cccc(NC(=S)NC(=O)c2ccc(Cl)cc2)c1	inconclusive: 0.0236	inconclusive: 0.0135
Cc1cc(=S)[nH]c2ccccc12	inconclusive: 0.0236	active: 0.0148
COc1ccc(C)cc1NS(=O)(=O)c1cccc2nonc12	inactive: 0.0267	inconclusive: 0.0109
S=c1[nH]nc(-c2cccs2)n1C1CCCCC1	active: 0.0257	inconclusive: 0.0118
CCOC(=O)c1sc(-c2ccc(Cl)cc2)nc1O	inactive: 0.0238	inconclusive: 0.0113
O=C(NC(=S)NCCC1=CCCCC1)c1cccnc1	inconclusive: 0.0331	active: 0.0111
COc1ccc(N2CCN(C(=O)C3CCC(Cn4c(=S)[nH]c5ccccc5c4=O)CC3)CC2)cc1 (centres undefined)	inconclusive: 0.0244	active: 0.0153
Cn1nc(C(=O)Nc2nc3ccc(S(C)(=O)=O)cc3s2)ccc1=O	inactive: 0.0261	inconclusive: 0.0112
C/C(N)=C(/C#N)C(=O)CSc1nnc(SCc2ccc(Cl)cc2)s1	inconclusive: 0.0154	inactive: 0.0118
C=CCNC(=S)N/N=C/c1ccc(C)s1	active: 0.0521	inconclusive: 0.0108
Cc1cccc(C(=O)Nc2nnc(-c3cccnc3)o2)c1	inactive: 0.02	inconclusive: 0.0116
